Reference: PubChem BioAssay AID1347073 (National Center for Advancing Translational Sciences (NCATS), 2019)
The campaign covered roughly 45,000 compounds. About 200 (0.44%) were called active. Not shown: some 7% with an inconclusive outcome. The call rests on the fitted dose curve; in most records, active means well fitted activation curve with a large enough effect; inconclusive means small, poorly fitted or top-dose-only effect; inactive means no such curve, though single readings can be large or run the other way. Some of the results follow.

Experiment: qHTS of TDP-43 Inhibitors: NCGC Sytravon Library Screen; further: 0% is about no effect; nearly all actives have a fitted effect of over 55% in size
Conditions: yeast TDP-43 toxicity rescue, BacTiter-Glo growth, 24 h; series mostly up to 46.1 µM; growth rescue (activation): at the top concentration
Procedure, shortened: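 TDP-43-expressing yeast, pregrown in raffinose, seeded at OD600 0.02 in galactose medium with compound for 24 hr at 30 deg C. Growth read by BacTiter-Glo luminescence, so rescue of toxicity appears as activation.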

Question: With `O=C(CCOc1cccc(Br)c1)Nc1ccc(F)c(S(=O)(=O)N2CCOCC2)c1` as the compound, how does the “growth rescue (activation)” value read?
Answer: inactive: -1.25%

Question: Which “growth rescue (activation)” value does the source give for `O=C(c1ccc(NS(=O)(=O)c2ccc(Cl)cc2)cc1)N1CCOCC1` here?
Answer: inactive: -0.149%

Question: For `COCC1CCN(C(=O)c2ccc3oc(Cc4ccccc4)nc3c2)C1` (stereo not given), which “growth rescue (activation)” value is on record?
Answer: inactive: 2.45%

Question: With `Cc1cc([N+](=O)[O-])cc(/C=N/n2c(C)nc3ccccc3c2=O)c1O` as the compound, how does the “growth rescue (activation)” value read?
Answer: inactive: -37.9%

Question: For `CCc1ccc(NC(=O)C(C)OC(=O)Cc2cc(OC)c(OC)c(OC)c2)cc1` (stereo not given), which “growth rescue (activation)” value is on record?
Answer: inactive: 2.7%

Question: Which “growth rescue (activation)” value does the source give for `CN(C(=O)COC(=O)c1cccnc1Cl)C1CCCCC1` here?
Answer: inactive: 23%

Question: With `CCOc1ccccc1Nc1nnc(SCC(=O)Nc2ccc3[nH]c(=O)[nH]c3c2)s1` as the compound, how does the “growth rescue (activation)” value read?
Answer: inactive: 16.2%

Question: Which “growth rescue (activation)” value does the source give for `O=C(COC(=O)c1cnccn1)c1ccc([N+](=O)[O-])cc1` here?
Answer: inactive: -6.66%

Question: Which “growth rescue (activation)” value does the source give for `CCC(C)NCCCCOc1ccc(Br)cc1` (stereo not given) here?
Answer: inactive: -1.6%

Question: With `CC(=O)NC(c1ccccc1)c1nc(-c2cc3ccccc3o2)cs1` (stereo not given) as the compound, how does the “growth rescue (activation)” value read?
Answer: inactive: 14.9%

Question: With `CCN1CCN(c2cc3nc(C)n(Cc4ccccc4)c(=O)c3cc2NC(=O)c2ccccc2F)CC1` as the compound, how does the “growth rescue (activation)” value read?
Answer: inactive: -0.277%

Question: For `Cc1ccc(-c2cc3nc(C)cc(C)n3n2)cc1`, which “growth rescue (activation)” value is on record?
Answer: inactive: 9.86%

Question: For `O=C(Nc1sc2c(c1C(=O)O)CCCCC2)c1ccccc1F`, which “growth rescue (activation)” value is on record?
Answer: inactive: 8.13%

Question: Which “growth rescue (activation)” value does the source give for `C[C@@H]1CN(c2nc3nonc3nc2N2CCSCC2)C[C@H](C)O1` here?
Answer: inactive: -39.1%

Question: Which “growth rescue (activation)” value does the source give for `COc1ccc(C(=O)Nc2ccc(NC(=O)C3CC3)nc2)cc1` here?
Answer: inactive: 15.8%

Question: For `CC1(C)CC(=O)c2cc(N=C/C(C(=O)c3ccccc3)=C(\O)c3ccccc3)c(=O)oc2C1`, which “growth rescue (activation)” value is on record?
Answer: inactive: 3.34%

Question: Which “growth rescue (activation)” value does the source give for `Cc1cc2cc(C#N)c(SCC(=O)Nc3nonc3C)nc2cc1C` here?
Answer: inactive: -6.66%

Question: For `O=C(CSc1nc2cc(Cl)ccc2c(=O)n1Cc1ccco1)Nc1ccc(S(=O)(=O)N2CCOCC2)cc1`, which “growth rescue (activation)” value is on record?
Answer: inactive: 21.8%

Question: For `COc1cc(SC)ccc1C(=O)N(C)CC(=O)Nc1cccc2ccccc12`, which “growth rescue (activation)” value is on record?
Answer: inactive: 23.3%

Question: Which “growth rescue (activation)” value does the source give for `O=C(CCn1c(=O)c2ccccc2n(Cc2ccccc2)c1=O)NCc1ccc2c(c1)OCO2` here?
Answer: inactive: 12.6%

Question: With `CC(C)c1ccc(C(=O)CN2C(=O)NC3(CCc4ccccc43)C2=O)cc1` (stereo not given) as the compound, how does the “growth rescue (activation)” value read?
Answer: inactive: -52.6%

Question: Which “growth rescue (activation)” value does the source give for `N#CCCN(Cc1ccccc1)C(=S)Nc1ccccc1` here?
Answer: inactive: 13.2%

Question: With `CC1CCc2c(sc(/N=C/N(C)C)c2C#N)C1` (stereo not given) as the compound, how does the “growth rescue (activation)” value read?
Answer: inactive: 33.5%

Question: Which “growth rescue (activation)” value does the source give for `CCOc1ccc(NC(=O)Cn2cc(C(C)=O)c3ccccc32)cc1` here?
Answer: inactive: -4.91%

Question: Which “growth rescue (activation)” value does the source give for `CC(C)C(N)c1csc(Nc2ccc(C(F)(F)F)cn2)n1` (stereo not given) here?
Answer: inactive: 5.48%

Question: With `O=C1N=C(N2CCOCC2)S/C1=C\c1ccncc1` as the compound, how does the “growth rescue (activation)” value read?
Answer: inactive: -7.99%

Question: Which “growth rescue (activation)” value does the source give for `COCCn1cnc2c1c(=O)n(Cc1ccc(C#N)cc1)c(=O)n2Cc1ccccc1` here?
Answer: inactive: 5.43%

Question: For `Cc1[nH]n(-c2ccccc2)c(=S)c1C=Nc1ccc([N+](=O)[O-])cc1`, which “growth rescue (activation)” value is on record?
Answer: inactive: 12.5%

Question: Which “growth rescue (activation)” value does the source give for `CCC(C)NS(=O)(=O)c1ccc(NC(=O)CNCc2cccs2)cc1` (stereo not given) here?
Answer: inactive: -3.02%

Question: For `N#Cc1ccccc1Sc1ccccc1C(=O)OCC(=O)NC12CC3CC(CC(C3)C1)C2`, which “growth rescue (activation)” value is on record?
Answer: inactive: -1.51%
